The source of these data is article PMC4336329 (PLoS ONE, 2015).

The structures appear in SMILES notation. Hit rate of the full screen: of about 310,000 compounds, about 2,200 (0.71%) showed an effect of 50% or more. The effect is printed as a negative number. The list shows a part of the results.

human ether-à-go-go-related gene (hERG) potassium channel, sequence (Q12809 whole entry, looked up): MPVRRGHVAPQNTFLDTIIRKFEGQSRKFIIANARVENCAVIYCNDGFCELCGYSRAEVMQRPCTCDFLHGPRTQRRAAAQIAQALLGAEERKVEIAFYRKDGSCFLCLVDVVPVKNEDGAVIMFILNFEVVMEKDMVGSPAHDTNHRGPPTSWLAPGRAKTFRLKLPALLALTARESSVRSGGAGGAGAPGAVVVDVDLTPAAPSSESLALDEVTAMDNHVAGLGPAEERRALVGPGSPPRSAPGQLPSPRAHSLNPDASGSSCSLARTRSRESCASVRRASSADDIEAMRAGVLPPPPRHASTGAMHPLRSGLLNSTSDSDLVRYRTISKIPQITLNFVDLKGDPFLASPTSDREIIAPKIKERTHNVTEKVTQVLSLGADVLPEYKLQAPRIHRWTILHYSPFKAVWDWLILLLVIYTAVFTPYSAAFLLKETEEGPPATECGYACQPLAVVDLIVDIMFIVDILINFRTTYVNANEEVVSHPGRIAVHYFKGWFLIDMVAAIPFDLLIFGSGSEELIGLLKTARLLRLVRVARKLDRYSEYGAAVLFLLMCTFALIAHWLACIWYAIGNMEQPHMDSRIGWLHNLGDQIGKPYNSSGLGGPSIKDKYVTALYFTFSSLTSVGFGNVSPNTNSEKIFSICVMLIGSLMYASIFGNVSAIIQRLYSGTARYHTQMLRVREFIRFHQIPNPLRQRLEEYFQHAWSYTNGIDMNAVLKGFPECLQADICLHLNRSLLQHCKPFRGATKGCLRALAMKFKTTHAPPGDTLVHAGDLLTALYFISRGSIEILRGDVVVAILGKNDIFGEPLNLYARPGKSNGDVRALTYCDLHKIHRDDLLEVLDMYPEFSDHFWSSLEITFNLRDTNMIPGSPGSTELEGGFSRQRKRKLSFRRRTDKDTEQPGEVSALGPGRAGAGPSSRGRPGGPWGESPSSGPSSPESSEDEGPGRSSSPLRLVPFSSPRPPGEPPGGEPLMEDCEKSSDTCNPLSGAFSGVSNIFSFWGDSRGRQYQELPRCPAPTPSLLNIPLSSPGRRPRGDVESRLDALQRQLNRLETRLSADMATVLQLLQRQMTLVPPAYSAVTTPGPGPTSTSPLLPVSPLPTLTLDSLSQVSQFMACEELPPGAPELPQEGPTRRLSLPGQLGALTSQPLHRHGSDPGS

This experiment has as its target human ether-à-go-go-related gene (hERG) potassium channel (human, UniProt Q12809). The experiment can be described thus: primary screen, population patch clamp on CHO cells stably expressing hERG.
As for `O=C(O)COc1ccc(NC(=O)C(c2ccccc2)c2ccccc2)cc1`, the “hERG current change (%, negative = inhibition) at 1uM” value is given as 11.5%.

Turning to `C[C@@H]1C[C@H]2[C@@H]3CCC4=CC(=O)C=C[C@]4(C)[C@@]3(F)[C@@H](O)C[C@]2(C)[C@H]1C(=O)CO`, the “hERG current change (%, negative = inhibition) at 1uM” value is recorded as -3.26%.

Consider `COc1ccccc1N(CC(=O)NCc1cccnc1)S(C)(=O)=O`, for which the “hERG current change (%, negative = inhibition) at 1uM” value is given as 5.33%.

With `CCN1CCN(CCNC(=O)Nc2ccc([N+](=O)[O-])cc2)CC1`, the “hERG current change (%, negative = inhibition) at 1uM” value is on record as 13.2%.

Turning to `O=C(Nc1cc(C(=O)N2CCOCC2)ccc1N1CCCC1)c1cccs1`, the “hERG current change (%, negative = inhibition) at 1uM” value is recorded as -78.2%.

For `CCOC(=O)c1[nH]c2ccc(OC)cc2c1NC(=O)OC`, the “hERG current change (%, negative = inhibition) at 1uM” value stood at 9.33%.

On to `c1ccc(CSc2ccc(-c3cccs3)nn2)cc1`, for which the “hERG current change (%, negative = inhibition) at 1uM” value is reported as 13.1%.

Consider `O=C(NCc1nnc(SCC(=O)N2CCCCCC2)o1)c1ccccc1F`, for which the “hERG current change (%, negative = inhibition) at 1uM” value is recorded as 14%.

Regarding `O=C(COC(=O)CN1C(=O)c2ccccc2C1=O)NC1CCCCC1`, the “hERG current change (%, negative = inhibition) at 1uM” value came out at 13.4%.

With `CCCN(CCC)CCNC(=O)C1CCN(S(=O)(=O)c2cccc3nsnc23)CC1`, the “hERG current change (%, negative = inhibition) at 1uM” value came out at 14.8%.

Turning to `O=C(COC(=O)c1ccc(S(=O)(=O)NCc2ccco2)cc1)NC1CCCCC1`, the “hERG current change (%, negative = inhibition) at 1uM” value was 4.88%.

Regarding `COc1ccc(NS(=O)(=O)c2cccc(C(=O)NNC(=O)c3cccn3C)c2)cc1`, the “hERG current change (%, negative = inhibition) at 1uM” value was 6.27%.

Take `Cc1ccc(-n2c(N)cc(=O)nc2SCC(=O)N2CCN(c3ccccc3)CC2)cc1`: the “hERG current change (%, negative = inhibition) at 1uM” value is recorded as 13.1%.

For `COc1cccc(CN2CCN(CC#Cc3ccccc3)CC2CCO)c1` (centres unmarked), the “hERG current change (%, negative = inhibition) at 1uM” value was 2.55%.

Consider `CCOCCCNC(=O)Cn1cc2c(n1)CCCC2`, for which the “hERG current change (%, negative = inhibition) at 1uM” value is listed as 5.36%.

On to `Cc1nnsc1SCCNC(=O)Nc1ccc(Cl)cc1`, for which the “hERG current change (%, negative = inhibition) at 1uM” value worked out at 10.1%.

On to `COc1ccc(CN2CCNC(=O)C2CC(=O)NCCc2nc(C)c(C)s2)cc1C` (centres unmarked), for which the “hERG current change (%, negative = inhibition) at 1uM” value amounted to 9.06%.

For the compound `CC(C)(C)c1nc(SCC(=O)Nc2ccc3c(c2)OCCO3)c2ccccc2n1`, the “hERG current change (%, negative = inhibition) at 1uM” value stood at 4.06%.

Take `C/C(O)=C(\C#N)c1nnc2n1CCCCC2`: the “hERG current change (%, negative = inhibition) at 1uM” value was determined as 4.35%.

For `Cc1ccc(Oc2nnc(-c3ccccc3)cc2C#N)cc1`, the “hERG current change (%, negative = inhibition) at 1uM” value is listed as 0.98%.

In the case of `Cc1ccc(OCC(=O)Nc2ccc(C(N)=O)cc2)cc1`, the “hERG current change (%, negative = inhibition) at 1uM” value is reported as 10.4%.

With `c1coc(CNc2c3c(nc4ncnn24)CCC3)c1`, the “hERG current change (%, negative = inhibition) at 1uM” value is -3.08%.

`Cc1ccc(C)c(OCC(O)CN2CCc3ccccc3C2)c1C.Cl` (centres unmarked): the “hERG current change (%, negative = inhibition) at 1uM” value is given as -56.1%.

On to `O=C(CSc1n[nH]c(=O)n1Cc1ccco1)c1ccc(F)cc1`, for which the “hERG current change (%, negative = inhibition) at 1uM” value turned out to be 9%.

For `CC1Sc2ccc(S(=O)(=O)N3CCN(c4cccc(Cl)c4)CC3)cc2NC1=O` (centres unmarked), the “hERG current change (%, negative = inhibition) at 1uM” value worked out at 11.6%.

Regarding `O=C(c1ccc(NC(=S)Nc2ccc(F)cc2F)cc1)N1CCOCC1`, the “hERG current change (%, negative = inhibition) at 1uM” value came out at 10%.

On to `N#C/C(=C\c1c(N2CCC(C(N)=O)CC2)nc2ccccn2c1=O)S(=O)(=O)c1ccccc1`, for which the “hERG current change (%, negative = inhibition) at 1uM” value was 12.3%.

Take `O=c1[nH]c(C2CC2)nc2sc3c(c12)CCCC3`: the “hERG current change (%, negative = inhibition) at 1uM” value is 13.2%.

Regarding `O=C(N/N=C/C=C/c1cccc([N+](=O)[O-])c1)c1ccncc1`, the “hERG current change (%, negative = inhibition) at 1uM” value was determined as 7.06%.

As for `Cc1cc(C)n(CC(=O)NNC(=O)CCCOc2ccc(Cl)cc2C)n1`, the “hERG current change (%, negative = inhibition) at 1uM” value was 0.531%.

`CC(=O)N/N=C(\C)c1cccc(C(F)(F)F)c1`: the “hERG current change (%, negative = inhibition) at 1uM” value came out at 8.59%.

For the compound `COc1ccc(OCCOC(=O)Nc2ccccc2)cc1`, the “hERG current change (%, negative = inhibition) at 1uM” value was 6.49%.

With `O=C(O)C[C@H]1c2cc(F)ccc2S(=O)(=O)N1Cc1ccccc1`, the “hERG current change (%, negative = inhibition) at 1uM” value was determined as 4.18%.

For `O=C(CN1CCCCC1)Nc1ccc(N2CCCCCC2)cc1.O=C(O)C(=O)O`, the “hERG current change (%, negative = inhibition) at 1uM” value is reported as -18.1%.

As to `CS(=O)(=O)N1CCC(C(=O)Nc2ccccc2F)CC1`, the “hERG current change (%, negative = inhibition) at 1uM” value was determined as 15.8%.

Take `NC(=O)N/N=C\c1cccs1`: the “hERG current change (%, negative = inhibition) at 1uM” value was determined as 8.85%.

Consider `COc1ccc(-n2nc(C(=O)NCC(=O)N3CCN(Cc4ccccc4)CC3)c3ccccc3c2=O)cc1OC`, for which the “hERG current change (%, negative = inhibition) at 1uM” value was determined as 13.4%.

`CCN(CC)c1cc(C)c2cc(NC(=O)c3cccs3)ccc2n1`: the “hERG current change (%, negative = inhibition) at 1uM” value is -32.3%.

For `COc1ccc(OC)c(S(=O)(=O)N2CCCC(C(=O)N3CCC(C(N)=O)CC3)C2)c1` (centres unmarked), the “hERG current change (%, negative = inhibition) at 1uM” value turned out to be 4.1%.

Regarding `CCOC(=O)c1c(C)[nH]c(C(=O)COC(=O)CCSc2ccccc2)c1C`, the “hERG current change (%, negative = inhibition) at 1uM” value was found to be 18.8%.

Take `CCCN(CCC)C1Cc2cc(OC)c(OC)cc2C1.O=C(O)/C=C\C(=O)O`: the “hERG current change (%, negative = inhibition) at 1uM” value is on record as -1.61%.

As for `COc1ccc(-n2cnnc2SCC(=O)NC2CCS(=O)(=O)C2)cc1` (centres unmarked), the “hERG current change (%, negative = inhibition) at 1uM” value is listed as 6.86%.

As for `CC(C)(C)OC(=O)NCc1ccc(CNC(=O)c2[nH]cnc2C(=O)NCC(=O)OCc2ccccc2)cc1`, the “hERG current change (%, negative = inhibition) at 1uM” value is on record as 1.13%.

For `COc1ccc(OC)c(NC(=O)CC2C(=O)NCCN2C(=O)c2ccccc2)c1` (centres unmarked), the “hERG current change (%, negative = inhibition) at 1uM” value is on record as 13%.

As for `COc1ccc(-c2ccc(=O)n(CC(=O)Nc3ccc(C(=O)NC4CC4)cc3)n2)cc1OC`, the “hERG current change (%, negative = inhibition) at 1uM” value is 5.54%.

In the case of `Cc1cc(C(=O)Nc2sc3c(c2C#N)CCCCC3)cs1`, the “hERG current change (%, negative = inhibition) at 1uM” value is -7.49%.

For `Cc1cccc(CC(=O)NCCS(=O)(=O)N2CCN(c3cccc(Cl)c3)CC2)c1`, the “hERG current change (%, negative = inhibition) at 1uM” value was -10.2%.

Regarding `O=C(NC1CCCCC1)C(c1ccncc1)N(C(=O)c1ccco1)c1ccc(F)cc1` (centres unmarked), the “hERG current change (%, negative = inhibition) at 1uM” value was found to be 2.63%.

Take `COc1ccc(C(CC(=O)N2CCN(c3ccccc3)CC2)c2c(OC)cc(OC)c3ccc(=O)oc23)cc1` (centres unmarked): the “hERG current change (%, negative = inhibition) at 1uM” value is 12.6%.

On to `Cn1cccc1C(C(=O)NC1CCCCC1)N(C(=O)Cc1cccs1)C1CC1` (centres unmarked), for which the “hERG current change (%, negative = inhibition) at 1uM” value was 10.7%.

`CCOC(=O)c1csc(NC(=O)c2ccc3c(c2)OCCO3)n1`: the “hERG current change (%, negative = inhibition) at 1uM” value worked out at 10.2%.

Regarding `CC(=O)c1cccc(Nc2cc(C)nc3c(C)cc(C)cc23)c1.Cl`, the “hERG current change (%, negative = inhibition) at 1uM” value was -8.43%.

Take `Cc1cccc(Cn2c(Cc3ccccc3)nc3ccccc32)c1`: the “hERG current change (%, negative = inhibition) at 1uM” value is listed as -0.0286%.

Consider `COc1ccc(CN2CCn3ncc(C(=O)Nc4cccc(C)c4)c3C2=O)cc1`, for which the “hERG current change (%, negative = inhibition) at 1uM” value amounted to 10.4%.

`CCOc1ccc(C(=O)CCC(=O)NC(CC(C)C)C(=O)OC)cc1` (centres unmarked): the “hERG current change (%, negative = inhibition) at 1uM” value turned out to be 8.11%.

Take `CCc1ccccc1-n1ncc(C(=O)Nc2ccccc2OC)c1C`: the “hERG current change (%, negative = inhibition) at 1uM” value is recorded as 11.4%.
